In the supplement of paper PMC3334620:
The full ranking holds about 33,000 sequences; the median of “E-score (-0.5 to 0.5)” is about -0.016, and the highest 2% start at about 0.31. The list shows a part of the results.

target: Cst6 (UniProt P40535); assay: PBM E-score (8-mer binding enrichment) (E-score (-0.5 to 0.5)); higher = stronger / more preferred TF binding; most listed sequences are background and not binding sites; conditions: protein concentration: 200 nM; construct: GST-DNA-binding domain
In short: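 Universal all-10-mer Agilent arrays, fresh or stripped once, were converted to double-stranded form by primer extension. GST-tagged yeast transcription factors from PURExpress in vitro transcription/translation, full-length or DNA-binding domain only, were applied at about 100-200 nM and detected with fluorescent anti-GST. After masliner normalisation, the Universal PBM Analysis Suite scored each ungapped eight-base word together with its reverse complement by E-score.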

Row | Sequence | PBM E-score
1 | GCGGACAC | 0.0039
2 | CAAGCACG | 0.0319
3 | AACCCCAT | -0.133
4 | GACTCCCC | -0.35
5 | GCGGCGTA | 0.23
6 | AACCCCAC | -0.262
7 | AAGATGCT | -0.128
8 | GCGACAGC | -0.234
9 | AAGAATGA | 0.294
10 | CCCGTCCG | -0.302
11 | CCAATCCA | -0.22
12 | ACTCCAGC | -0.23
13 | ACCACTAG | 0.00882
14 | ACCGTCAT | 0.418
15 | CGGCCCAG | -0.239
16 | CCTCGACG | -0.106
17 | CAGGGGTA | -0.313
18 | CGCTAGCG | -0.28
19 | AACCTTGT | -0.196
20 | TCTTCCCA | -0.188
21 | CAACCCGA | 0.0847
22 | AAACTACC | 0.00827
23 | ATTAATTA | 0.297
24 | AGGAGTGA | 0.118

Row | Sequence | PBM E-score
25 | ACGTGGCC | -0.138
26 | CGTTTCGA | 0.0477
27 | ACGCGAAG | -0.0658
28 | AAACACGG | -0.0188
29 | AGAGGGGG | -0.43
30 | ACATGGCA | 0.0593
31 | ACATTGTG | 0.0401
32 | AGCTCGAA | -0.045
33 | CAATGGCG | -0.18
34 | TCGAGGCA | 0.156
35 | GTGCCGCA | 0.362
36 | TCATTCCA | 0.0734
37 | TCGAATCA | 0.0583
38 | GCCCACAA | -0.222
39 | ACGGCACC | 0.391
40 | ACTCCTTA | -0.112
41 | CATTCCTA | -0.0338
42 | AAGTATAA | 0.158
43 | CAGCCGGA | -0.0573
44 | AATACTGC | -0.0664
45 | CGTAGGGC | -0.199
46 | AATTGACA | 0.0844
47 | CAGCGGTA | 0.0522
48 | CATAGAAG | 0.0768

Row | Sequence | PBM E-score
49 | ACGCCGCA | 0.336
50 | TCCCTCCA | -0.237
51 | AGCCTAGA | -0.13
52 | CAGTTACC | -0.0833
53 | GATAAATC | 0.0692
54 | ACGGGACT | -0.177
55 | ACCTAAGT | -0.0476
56 | ATTGTCAA | 0.123
57 | AACTAACC | 0.185
58 | CGAGAGCC | -0.252
59 | GAAATGGC | 0.0365
60 | AAAAGCGC | 0.0701
61 | CATTTTTC | 0.228
62 | TCACCACA | 0.145
63 | ATTACAAA | 0.213
64 | CAGGTATC | -0.144
65 | AACAATAC | 0.156
66 | GTGCGTAA | 0.192
67 | ACAAGAGC | -0.0171
68 | CAGACAGC | -0.185
69 | ATGTATTG | 0.208
70 | AATTCCTG | -0.0708
71 | CTTCGCAC | 0.0694
72 | TGGAACAA | 0.153

Row | Sequence | PBM E-score
73 | AATGCGCA | -0.00595
74 | AGTTACGG | 0.0767
75 | GTCTCATA | -0.139
76 | CGCTGCAC | -0.0108
77 | GCCGTAAC | 0.198
78 | CTGTTAAA | 0.157
79 | AAATCGAG | -0.0139
80 | ACCAGGGG | -0.24
81 | ACTAATAC | 0.188
82 | CGGCCTTC | 0.00035
83 | CCATGTAC | -0.0837
84 | GGTTTGTA | -0.0712
85 | AAATCCGC | -0.0853
86 | CGGCACAA | 0.228
87 | ACAATTCG | 0.146
88 | AGATGTTC | -0.155
89 | GACCCACA | -0.00436
90 | ATACGAAA | 0.192
91 | CCGCCCGA | -0.176
92 | AGACCCTA | -0.153
93 | CAAGCCAC | -0.296
94 | AAGTCTTC | -0.119
